Measurements: PubChem BioAssay AID488969 (Vanderbilt High Throughput Screening Facility, 2010)
Over roughly 110,000 compounds, “z-score” has its median near -0.1; the highest 2% begin near 2. This is one part of the list. The source made the active and inactive calls.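 How the source made its calls: active means z-score in the third read window above 3 or below -3; inactive means the rest.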

Molecular target: Metabotropic glutamate receptor 8 (Rattus norvegicus) (UniProt P70579)
Test: mGluR8 Gi/Go-coupled signaling modulation – cell-based, rat, thallium flux, HTS, primary screen (AID 488969)
Details: HEK293 rat mGluR8, GIRK (G protein-gated inwardly rectifying potassium channel) thallium flux, FluoZin2; at 10 µM; stronger effect = higher value; submaximal glutamate (EC20) added with thallium

Sequence of UniProt P70579 (P70579 whole entry, looked up): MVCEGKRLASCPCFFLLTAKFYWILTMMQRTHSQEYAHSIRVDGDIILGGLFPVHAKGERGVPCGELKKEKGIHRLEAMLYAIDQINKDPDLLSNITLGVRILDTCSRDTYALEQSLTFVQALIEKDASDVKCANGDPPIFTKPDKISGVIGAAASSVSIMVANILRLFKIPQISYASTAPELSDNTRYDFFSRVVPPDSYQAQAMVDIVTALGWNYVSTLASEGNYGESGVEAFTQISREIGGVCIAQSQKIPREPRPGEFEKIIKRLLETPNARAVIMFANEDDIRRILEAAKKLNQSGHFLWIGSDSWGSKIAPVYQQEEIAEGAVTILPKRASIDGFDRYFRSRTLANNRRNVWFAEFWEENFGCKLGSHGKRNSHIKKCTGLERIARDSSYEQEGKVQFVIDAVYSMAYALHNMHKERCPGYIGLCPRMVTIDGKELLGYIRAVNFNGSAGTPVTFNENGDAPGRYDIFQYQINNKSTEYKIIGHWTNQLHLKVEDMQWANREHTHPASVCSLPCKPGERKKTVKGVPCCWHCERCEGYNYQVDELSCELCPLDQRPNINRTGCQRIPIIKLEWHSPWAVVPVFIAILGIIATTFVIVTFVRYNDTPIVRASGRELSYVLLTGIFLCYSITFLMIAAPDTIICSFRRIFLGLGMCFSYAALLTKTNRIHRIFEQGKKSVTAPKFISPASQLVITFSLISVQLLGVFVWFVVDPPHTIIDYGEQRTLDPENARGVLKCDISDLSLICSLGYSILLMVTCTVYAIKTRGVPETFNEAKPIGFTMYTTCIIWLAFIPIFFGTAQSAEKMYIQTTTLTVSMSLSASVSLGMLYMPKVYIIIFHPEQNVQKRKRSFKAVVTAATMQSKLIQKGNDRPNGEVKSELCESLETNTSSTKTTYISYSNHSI

| SMILES | z-score |
| --- | --- |
| Nc1nc(SCC(=O)Nc2ccccc2Sc2ccccc2)n[nH]1 | -0.629 |
| Cc1ccc(-n2nnc3c(SCC(=O)NCC4CCCO4)ncnc32)cc1 (stereo not given) | 0.0501 |
| CCOC(=O)c1cccc(S(=O)(=O)N(CCO)Cc2cc3cc(OC)ccc3[nH]c2=O)c1 | -0.116 |
| O=C(CSc1nnc2scc(-c3ccccc3)n12)Nc1ccc2c(c1)OCCO2 | -1.39 |
| O=C(/C=C/c1ccc(F)cc1)Nc1cccc(S(=O)(=O)Nc2cccc(C(F)(F)F)c2)c1 | -0.207 |
| COCCN1C(=O)C(=O)/C(=C(/O)c2cccc(OC)c2)C1c1ccco1 (stereo not given) | -0.469 |
| Cc1cccc(-c2nnc(SCC(=O)N3c4ccccc4CCc4ccccc43)n2C)c1 | -0.366 |
| COc1ccc(OCC(=O)N/N=c2\oc3c(OC)cccc3cc2C(N)=O)cc1 | -0.154 |
| CC12C=CC3(O1)C(C(=O)N(c1ccccc1)C3C(=O)NC1CCCC1)C2C(N)=O (stereo not given) | 0.414 |
| COc1cccc2c(=O)n(CC(=O)Nc3ccccc3)ccc12 | 0.052 |
| Fc1ccc(-c2noc(C3CCN(Cc4cccnc4)CC3)n2)cc1 | 0.839 |
| Cc1ccccc1N(CC(=O)NC1CCCC1)C(=O)c1oc(C(C)(C)C)cc1C | -0.251 |
| COc1ccc(CCNC(=O)CCSc2nc(-c3ccco3)cc(C(F)(F)F)n2)cc1 | -0.38 |
| Cc1cc(OCC(=O)N2CCOCC2)c(C(C)C)cc1Cl | -0.938 |
| Cc1ccc(-c2nc3ncccc3o2)cc1NC(=O)c1sc2ccccc2c1Cl | -0.924 |
| Cc1nc2ccccc2nc1OCC(=O)N1CCN(c2ccccc2)CC1 | -0.273 |
| O=C(C(Cc1ccccc1)n1cccc1)N1CCN(C2CCCCC2)CC1 (stereo not given) | -0.652 |
| COc1ccc(NC(=O)CN2CCC(n3c(C)nc4cc(F)ccc43)CC2)c(OC)c1 | -0.554 |
| O=C1CC(c2ccccc2)n2nc(N3C(=O)c4ccccc4C3=O)nc2N1 (stereo not given) | -0.556 |
| O=c1[nH]c2ccc(Br)cc2c(-c2ccccc2)c1N1CCOCC1 | -0.809 |
| CSc1ccccc1NC(=O)CN(C)Cc1ccc(Br)cc1 | -0.0827 |
| O=C(Nc1ccc(F)cc1)c1nsc(Cl)c1Cl | 1.05 |

| SMILES | z-score |
| --- | --- |
| COc1ccc(Nc2nc3ccccc3n3cnnc23)cc1 | -0.148 |
| CCN(CCO)C1CC(=O)N(c2ccccc2C)C1=O (stereo not given) | -0.176 |
| COc1cc(NC(=O)CSc2nc3ccccc3cc2Cc2ccccc2)cc(OC)c1 | -0.162 |
| C[N+]1(CCN2C(=O)C3CC=C(Cl)CC3C2=O)CCOCC1 (stereo not given) | -0.354 |
| COC(=O)C1=C(Cn2cnc3ccccc32)NC(=O)NC1c1cc(C)ccc1C (stereo not given) | -0.794 |
| c1csc(C(c2nnnn2C2CCCCC2)N2CCN(c3nc4ccccc4s3)CC2)c1 (stereo not given) | -1.46 |
| CCOC(=O)C(CC)Sc1nc2c(c(=O)[nH]c(=O)n2C)n1C/C=C(/C)Cl (stereo not given) | -1 |
| Cc1ccc(-c2cn(-c3ccccc3)c3[n+]2CCCS3)cc1 | -0.266 |
| COc1ccc2c(c1[N+](=O)[O-])CCC/C2=N/OC(=O)c1cccc2ccccc12 | 0.0304 |
| O=C(CN1CCCC1)Nc1ccc(-c2nc3cc(NC(=O)CN4CCCC4)ccc3o2)cc1 | 0.556 |
| CC(=O)c1ccc(NS(=O)(=O)c2cccc(C)c2)cc1 | -0.256 |
| N#CC1=C(N)SC(N)=C(C#N)C1C1C=CCCC1 (stereo not given) | 0.0133 |
| CS(=O)(=O)c1cnc(-c2ccccc2)nc1Oc1ccc(F)cc1 | -0.0732 |
| COc1c(F)c(F)c(C(=O)Nc2ccc(N3CCN(C(C)=O)CC3)c(Cl)c2)c(F)c1F | -0.24 |
| CCOc1ccc(C(=S)N2CCCC2)cc1 | 0.0258 |
| CCn1c(SCc2nc3ccccc3[nH]2)nnc1-c1cccs1 | -0.237 |
| CCOC(=O)C1CCCN(c2c(NCCc3ccc(S(N)(=O)=O)cc3)c(=O)c2=O)C1 (stereo not given) | 1.02 |
| c1ccc(-c2nc3cnccn3c2Nc2ccc3c(c2)OCCO3)cc1 | 0.216 |
| O=C(O)C1CC(=O)N(C2CCCCC2)C1c1ccccc1 (stereo not given) | 0.0745 |
| Cc1ccc(-n2c(N)c(C(N)=O)sc2=S)cc1 | 1.2 |
| Cc1cccc(/C=N/NC(=O)CNc2cccc3ccccc23)n1 | 0.238 |
| O=C(OCC(=O)N1CCc2ccccc21)c1c2c(nc3ccccc13)CCCCC2 | -0.0336 |

| SMILES | z-score |
| --- | --- |
| O=C(OC(C(=O)Nc1cccc(C(F)(F)F)c1)c1ccccc1)C1CCCCC1 (stereo not given) | 0.104 |
| CCn1cc(CNC(=O)NC2CCCCC2)c(C)n1 | -0.118 |
| Fc1ccc(-c2nnc(SCc3ncc(-c4ccccc4)o3)n2CC2CCCO2)cc1 (stereo not given) | -0.509 |
| CCn1c2ccccc2c2cc(NC(=O)COC(=O)c3cccc(S(=O)(=O)NC)c3)ccc21 | -0.176 |
| O=C(Nc1ccc(Cl)cc1)N(Cc1cccs1)Cc1cccs1 | 0.142 |
| CCC(=O)N1CCN=C1SCc1ccc(Cl)cc1 | 0.425 |
| Cc1cc(C)cc(N(C(C)C(=O)NC2CCCC2)S(C)(=O)=O)c1 (stereo not given) | 0.113 |
| Cc1cccc(NC(=O)CN(C)S(=O)(=O)c2ccccc2)n1 | 0.503 |
| Cc1ccc2ccc(S(=O)(=O)n3nc(C)cc3C)cc2c1 | -0.75 |
| COC(=O)c1cccnc1NC(=S)NNC(=O)c1ccncc1 | 0.00261 |
| O=C(NCc1ccccn1)c1cn(Cc2ccccc2)nn1 | -0.856 |
| COc1cccc(N(CC(=O)N2CCN(c3ccccc3OC)CC2)S(C)(=O)=O)c1 | 0.0693 |
| CCn1nc(C)c(NC(=O)/C=C/c2ccc(OC)c(COc3ccc(Br)cc3)c2)c1C | -1.25 |
| CCOC(=O)c1c(NS(=O)(=O)c2cccc(OC)c2)sc2c1CCC2 | active: 16.9 |
| COc1cc(C)ccc1OCCCCN1CC(C)OC(C)C1 (stereo not given) | -0.119 |
| Cc1nn(-c2ccccc2)c(C)c1P(=O)(c1ccccc1)N(C)C (stereo not given) | 1.71 |
| COc1ccc(C(C)=O)cc1CSc1nc2ccccc2c(=O)n1-c1ccccc1C | 0.07 |
| COC(=O)/C(=C/c1ccc(F)cc1)NC(C)=O | -0.177 |
| CSc1cccc(NC(=O)CSc2nnc(C)s2)c1 | -0.569 |
| CC(=O)N1N=C(c2ccco2)CC1c1cccs1 (stereo not given) | -0.152 |
| Nc1ccc(C(=O)N/N=C\c2cc(N=Nc3cccc4ccccc34)ccc2O)cc1 | 0.26 |
| Cc1ccc(N2CCN(c3ccc(C)cc3)C(CC(=O)O)C2=O)cc1 (stereo not given) | 0.799 |

| SMILES | z-score |
| --- | --- |
| Cc1ccc(OCc2nc(-c3ccc(-n4cccc4)cc3)no2)cc1C | -0.0508 |
| CCN1C(=O)/C(=C2\SC(=S)N(c3c(C)n(C)n(-c4ccccc4)c3=O)C2=O)c2ccccc21 | 1.22 |
| COc1cc(/C=C2/CCc3ccccc3C2=O)cc(OC)c1OC | -0.608 |
| COc1ccc(OC)c(S(=O)(=O)Nc2cccc(C(C)=O)c2)c1 | -0.0708 |
| O=C(Cc1cccs1)NCc1cn2ccccc2n1 | 0.0432 |
| COc1ccc(N(CC(=O)N2CCc3ccccc32)S(=O)(=O)c2c(C)nn(C)c2C)cc1 | 1.95 |
| O=c1[nH]c(CSc2nnc(-c3cccnc3)n2C2CCCCC2)nc2ccccc12 | 0.164 |
| Cc1ccc2c(c1)nc(NCCCO)n2C | -0.0773 |
| Cc1cc(NC(=O)CCN2C(=O)C3C4CCC(C4)C3C2=O)cc(C)c1Br (stereo not given) | -0.242 |
| CCN1CCCc2cc(CN(CCN3CCOCC3)C(=O)Nc3ccc(C)c(C)c3)ccc21 | -0.475 |
| O=C(Nc1ccc(N2CCCC2)cc1)c1ccc([N+](=O)[O-])cc1Cl | -0.117 |
| Cc1ccccc1-c1nnc(SCCOc2ccc3c(C)cc(=O)oc3c2)o1 | 0.05 |
| O=[N+]([O-])c1ccc2c(c1Nc1ccccc1)=NC1(CCCCC1)N=2 | -0.216 |
| CCOC(=O)C1=C(C)OC(N)=C(C(=O)OCC)C1c1cccnc1 (stereo not given) | -0.567 |
| CCOC(=O)c1ccc(CNC(=O)CSc2nc(NC(=O)c3ccccc3)c3c(C)c(C)oc3n2)cc1 | -0.0764 |
| Cc1cc(C(=O)COc2ccc(C#N)cc2)c(C)n1-c1ccc2c(c1)OCO2 | -0.245 |
| COc1ccc(Nc2oc(COc3ccc(Cl)cc3)nc2C#N)cc1 | 0.0424 |
| Cc1cccc(NC(=O)CCSc2nc(C)cc(C)n2)c1 | 0.233 |
| CCCOc1ccc(CC2CCC(=O)NC2=O)cc1 (stereo not given) | -0.173 |
| Cc1ccc2cc(CCNC(=O)c3ccco3)c(=O)[nH]c2c1 | 0.076 |
| CCOCCCNC(=O)Cc1ccc(Br)cc1 | -0.0629 |
| N=c1sccn1CC(=O)NCCc1ccc(Cl)cc1 | -0.154 |

| SMILES | z-score |
| --- | --- |
| CCCCNC(=O)c1ccc(CNc2c(N3CCC(C(=O)OCC)CC3)c(=O)c2=O)cc1 | -0.576 |
| Cc1cc(OCC(=O)Nc2ccc(S(=O)(=O)NC3=NCCCCC3)cc2)c(C(C)C)cc1Cl | -0.263 |
| COc1ccc(Cl)c(NCCC(=O)O)c1 | -0.0772 |
| CC(=O)N(C)c1ccc(OCC(O)CN(Cc2ccco2)S(=O)(=O)c2ccc(C)cc2)cc1 (stereo not given) | -0.189 |
| COc1ccc2oc(/C=C/N(C)C)c(C(=O)c3ccc(Cl)cc3)c2c1 | -0.209 |
| O=C(CSc1c[nH]c2ccccc12)NCC1CCCO1 (stereo not given) | -0.0605 |
| COC(=O)c1ccccc1NC(=O)NCc1ccccn1 | 0.207 |
| CCOC(=O)c1oc2ccccc2c1NC(=O)COC | -0.0593 |
| Cc1ccc(NC(=O)CNC(c2ccccc2)c2ccccc2)c(F)c1 | 0.49 |
| COc1ccc2nc(NC(=O)c3cccc(S(=O)(=O)N4CCOCC4)c3)sc2c1 | 0.184 |
| O=C(NCc1ccco1)c1ccc(NC(=O)C2COc3ccccc3O2)cc1 (stereo not given) | -0.216 |
| COc1cccc(CN2CCN(Cc3cc(OC)c(OC)cc3[N+](=O)[O-])CC2)c1 | -0.0472 |
| O=C(NCCO)c1ccc2nc(-c3ccco3)c(-c3ccco3)nc2c1 | -0.361 |
| Cc1sc2ncnc(NCC(c3ccco3)N3CCCC3)c2c1C (stereo not given) | -1.17 |
| COc1cccc(-c2nc(=S)c3c(n2CCCO)CCCC3)c1 | -0.0149 |
| O=C(Oc1cccc2cccnc12)c1ccc(Br)o1 | 0.13 |
| CCc1cc2c(SCC(=O)C(C#N)=C3N(C)c4ccccc4N3C)ncnc2s1 | -0.0221 |
| CC(Sc1nc(N)cc(=O)[nH]1)C(=O)NC1CCCCC1 (stereo not given) | 0.226 |
| COc1ccccc1N1CCN(C(=O)Oc2ccccc2)CC1 | -0.574 |
| CC(C)OCC(O)CSc1ccccn1 (stereo not given) | -0.878 |
| CCn1c(-c2ccccc2Cl)nn(CC(=O)Nc2ccc(OC)cc2)c1=S | -0.291 |
| CCN(CC)C(=O)C1CCN(S(=O)(=O)c2cccc3nonc23)CC1 | -0.0914 |
